# Measured values published in PubChem BioAssay AID485364 (National Center for Advancing Translational Sciences (NCATS), 2010).
# About 11,000 (3.1%) of roughly 360,000 compounds were called active. The inconclusive results got no clear call from the source; some entries with a clear call stand among them for comparison. The call rests on the fitted dose curve; in most records, active means well fitted inhibition curve with a large enough effect; inconclusive means small, poorly fitted or top-dose-only effect; inactive means no such curve, though single readings can be large or run the other way. No potency is given beside an inconclusive call; the fits are too rough.
# Biological target: Schistosoma mansoni thioredoxin glutathione reductase (TGR) (UniProt Q962Y6)
# Experiment: qHTS Assay for the Inhibitors of Schistosoma Mansoni Peroxiredoxins; further: nearly all actives have a fitted effect of over 60% in size
# Conditions: purified TGR, DTNB reduction, TNB absorbance 405 nm; series mostly up to 114 µM
# Method in brief: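 TGR 20 nM + NADPH 100 uM (dispensed conc.), cpd preinc 15 min RT; start with NADPH (500 uM addition) then DTNB (15 mM addition). Kinetic TNB absorbance, 405 nm filter. Four-parameter Hill fit across titration.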
# Potency means the concentration at half of the fitted maximal effect; tags describe the fitted curve by direction and shape.
row,SMILES,Potency
1,N#CCCn1cc(C(CC(=O)c2ccccc2)C(=O)O)c2ccccc21 (centres undefined),"inconclusive [inhibitor, partial curve]"
2,CCSc1nc2sc3c(c2c(=O)[nH]1)CC(C)(CC)OC3 (centres undefined),inactive
3,O=C(c1cccn1-c1nnc(N2CCCCC2)s1)N1CCN(c2ccc(Cl)cc2)CC1,inactive
4,CCC(Cc1ccccc1)NS(=O)(=O)c1csc(C(N)=O)c1 (centres undefined),inactive
5,Cc1nccc(-c2ccc(-n3c(C)ccc3C)cc2)n1,active: 39.8 µM
6,COc1ccc(C(=O)Nc2ccc3[nH]ncc3c2)cc1,inactive
7,C[n+]1c(-c2ccccc2)sc2ccccc21,"inconclusive [inhibitor, partial curve]"
8,COCCN(C(=O)CN1CCc2ccccc21)c1c(N)n(Cc2ccccc2)c(=O)[nH]c1=O,"inconclusive [inhibitor, single point]"
9,Cn1c(CNC(=O)c2ccc(Cl)c(Cl)c2)nnc1SCC(=O)Nc1sc2c(c1C#N)CCCC2,"inconclusive [inhibitor, partial curve]"
10,O=C(N/N=C\c1cc(Br)c(Br)o1)C1COc2ccccc2O1 (centres undefined),"inconclusive [inhibitor, partial curve]"
11,CCC(=O)Nc1cccc(NC(=O)c2ccc3c(c2)OCCO3)c1,inactive
12,Cc1cccc2nc(=S)n(C(=O)c3ccco3)n12,active: 22.4 µM
13,COc1ccc(C(=O)NCCCN2CCOCC2)cc1S(=O)(=O)N1CCCc2ccccc21,"inconclusive [inhibitor, partial curve]"
14,Brc1ccc(C2C3=C(Nc4ncnn42)c2ccccc2OC3c2ccncc2)cc1 (centres undefined),inactive
15,NC(=O)C1CCN(C2=C(Cl)C(=O)c3ccccc3C2=O)CC1,active: 0.447 µM
16,COc1cccc(CNCc2ccc(OC)c3ccccc23)c1OC,"inconclusive [inhibitor, partial curve]"
17,C/C=C/c1ccc(OCCN2C(=O)NC(C)(C)C2=O)c(OC)c1,inactive
18,C=CCN1C(=O)[C@@H]2Cc3c([nH]c4ccccc34)C(c3ccc(O)cc3)N2C1=S (some centres undefined),"inconclusive [inhibitor, partial curve]"
19,O=[N+]([O-])/C(C=Nc1ccccc1O)=C\Nc1ccccc1O,"inconclusive [inhibitor, full curve]"
20,CC(NC(=O)CCCN1C(=O)CCn2nc(-c3cn(C)c4ccccc34)cc21)c1ccccc1 (centres undefined),inactive
21,CCOC(=O)c1c(C)oc2nc(C)nc(N(C)Cc3ccccc3)c12,inactive
22,CCOC(=O)c1cc2occc2n1CC(=O)N1CCN(C(=O)c2ccco2)CC1,"inconclusive [inhibitor, partial curve]"
23,O=c1ccc2c(-c3ccccc3S(=O)(=O)O)c3ccc(O)c(O)c3oc-2c1O,"inconclusive [inhibitor, partial curve]"
24,Cc1nnc(NC(=O)c2cc3ccccc3o2)s1,inactive
25,Cc1cc(C(=O)NC(C)C)on1,"inconclusive [inhibitor, single point]"

row,SMILES,Potency
1,CC(=O)C1=C(C)N(Cc2ccccc2)C(=O)N[C@H]1c1ccco1,active: 17.8 µM
2,Cc1cc(C(=O)CCl)c(C)n1CCc1ccc(Cl)cc1,active: 7.94 µM
3,CCOC(=O)c1ccc(N2CCN(c3ccc(F)cc3)CC2)c(NC(=O)Nc2ccc(CC)cc2)c1,inactive
4,COC(=O)c1ccc([C@H]2Nc3ccc(S(=O)(=O)Nc4ccc(F)cc4)cc3[C@H]3C=CC[C@H]32)cc1,active: 31.6 µM
5,COc1cccc(/C=N/NC(=S)NCc2ccco2)c1OC,inactive
6,Oc1c(Br)cc(Br)cc1C=Nc1cccnc1,"inconclusive [inhibitor, partial curve]"
7,COc1ccc(C(=O)NCCCCCC(=O)N/N=C/c2ccco2)cc1OC,"inconclusive [inhibitor, partial curve]"
8,CC(=O)c1ccc(-c2nnc(CCC(=O)N3CCCC(C(=O)CC(C)C)C3)o2)s1 (centres undefined),"inconclusive [inhibitor, partial curve]"
9,COc1ccccc1NS(=O)(=O)c1cccc(C(=O)N/N=C/c2ccc([N+](=O)[O-])o2)c1,"inconclusive [inhibitor, single point]"
10,COc1cc2cccc(OC)c(=O)c2c(OC)c1OC,"inconclusive [inhibitor, partial curve, poor fit]"
11,C#CCNC(=O)C1=C[C@H](C2CCCCC2)[C@@H](CCCO)[C@H](OCC)O1,active: 17.8 µM
12,Cc1c(NC(=O)NCCN2C(=O)C3C4C=CC(C4)C3C2=O)c(=O)n(-c2ccccc2)n1C (centres undefined),inactive
13,Cc1oc(CN2CCOCC2)cc1C(=O)O,inactive
14,COc1ccc(C(=O)/C=C\N2CCOCC2)cc1,"inconclusive [inhibitor, full curve]"
15,Cc1ccc(Nc2nc(Oc3ccc(=O)[nH]n3)nc(N(C)C)n2)cc1,"inconclusive [inhibitor, single point]"
16,Cc1cc(C)c(NC(=O)Nc2ccccc2)c(C)n1,"inconclusive [inhibitor, single point]"
17,O=C(CN1C(=O)NC2(CCCCC2)C1=O)Oc1ccc2ccc(=O)oc2c1,"inconclusive [inhibitor, partial curve]"
18,O=C(Nc1ccccc1)c1ccc(-c2ccc([N+](=O)[O-])cc2)o1,active: 3.55 µM
19,CSc1nc(N)c(C(=O)Nc2ccc([N+](=O)[O-])cc2)s1,"inconclusive [inhibitor, full curve]"
20,CCOC(=O)N1CCN(CCC(=O)Nc2ccccc2OC)CC1,"inconclusive [inhibitor, partial curve]"
21,O=C(O)C1=C(C(=O)N2CCN(C(=O)c3ccco3)CC2)CCCC1,"inconclusive [inhibitor, partial curve]"
22,CSc1ncc(CN2CCCC(C(=O)Nc3ccc(-c4ccco4)cc3)C2)cn1 (centres undefined),active: 17.8 µM
23,COc1ccc(NC(=O)CSc2nnc3n2CCCCC3)cc1,"inconclusive [inhibitor, single point]"
24,NC(=O)C1CCN(C2CC(=O)N(Cc3ccc(N4CCCC4=O)cc3)C2=O)CC1 (centres undefined),active: 35.5 µM
25,C=CCc1c(C)nc2nc(SCC(=O)Nc3ccc(C)c(C)c3)nn2c1C,"inconclusive [inhibitor, partial curve]"

row,SMILES,Potency
1,Cc1ccc2[nH]c(C(=O)N3CCCC(Nc4ccc(F)cc4)C3)cc2c1 (centres undefined),"inconclusive [inhibitor, full curve]"
2,Cc1ccccc1N1CCN(C2CCCN(C(=O)c3cc(CC(C)C)nn3C)C2)CC1 (centres undefined),"inconclusive [inhibitor, full curve, poor fit]"
3,CCc1nnc(NC(=O)CCC(=O)N2CCN(Cc3ccc(F)cc3)CC2)s1,inactive
4,O=C1CCCN1CC(O)CS(=O)(=O)c1ccccc1 (centres undefined),inactive
5,Cc1ccsc1C(=O)N1CCCC(CCC(=O)NCc2ccccc2F)C1 (centres undefined),inactive
6,COc1cccc(C(=O)NC(=S)NCc2ccco2)c1,"inconclusive [inhibitor, partial curve]"
7,CCN(CC)Cc1c(O)c(Cl)cc2c(C)cc(=O)oc12,"inconclusive [inhibitor, partial curve]"
8,COc1ccc(-c2noc(-c3ccccc3C(=O)Nc3cccc(OC)c3)n2)cc1,"inconclusive [inhibitor, full curve, poor fit]"
9,O=c1c2ccccc2nc(-c2ccco2)n1-c1ccncc1,"inconclusive [inhibitor, partial curve, poor fit]"
10,COc1ccc(-c2c3c(=O)n(C)c(=O)n(C)c3cn2Cc2cccnc2)cc1,"inconclusive [inhibitor, partial curve]"
11,O=C(OCC(=O)N1CCN(Cc2ccccc2)CC1)c1cc(Cl)ccc1[N+](=O)[O-],inactive
12,CCOc1ccc(C(C)=O)cc1CSc1nnnn1-c1ccc(O)cc1,"inconclusive [inhibitor, full curve]"
13,Cc1cc(C(F)(F)F)nc(-n2cc(-c3cccc(N)c3)nn2)n1,inactive
14,O=C(O)c1cccnc1SCC(=O)N1CCCc2ccccc21,"inconclusive [inhibitor, partial curve]"
15,COc1cccc(Cc2nc3ccccc3nc2SCC(=O)NCc2ccc(C)cc2)c1,inactive
16,CC1CCN(CCCCOc2ccc(C(C)(C)C)cc2)CC1,"inconclusive [inhibitor, partial curve]"
17,Cc1cccc(-n2ncc3c(NCCCO)ncnc32)c1,"inconclusive [inhibitor, single point]"
18,N#Cc1ccsc1NC(=O)C1CCN(C(=O)c2ccc(F)cc2)CC1,"inconclusive [inhibitor, partial curve]"
19,O=C(/C=C/c1ccccc1Br)c1ccc2c(c1)OCO2,"inconclusive [inhibitor, full curve]"
20,CCc1ccc(NS(=O)(=O)c2c(C)nc3sc(CC)nn3c2=O)cc1,inactive
21,CCOc1ccccc1NC(=O)C1C2CCC3C(CCC21)C3(Cl)Cl (centres undefined),"inconclusive [inhibitor, partial curve]"
22,COC(=O)Cn1c2ccccc2c2nc(=O)cc(C)n21,inactive
23,Cc1ccc(S(=O)(=O)Oc2ccccc2C=C2C(=O)N(C)C(=O)N(C)C2=O)cc1,"inconclusive [inhibitor, partial curve]"
24,COc1ccc(CNc2nc3ccccc3c3nc(-c4ccccc4)nn23)cc1,inactive
